The conditions of the series: Sus scrofa, reversible: yes, whole UniProt chain shown.
[1] abbreviates: pH 7.5, 25 °C, Urea, CD, Sodium phosphate 0.1 M, sodium hydroxide.
[2] abbreviates: pH 8, Thermal, Absorbance, MOPS 20 mM.

“And” between values parts separate entries of the source, which are not always exact repeats. Identical values can stand only once.

B1: Pepsin A wild type, P00791 (protein)
chain: MKWLLLLSLVVLSECLVKVPLVRKKSLRQNLIKNGKLKDFLKTHKHNPASKYFPEAAALIGDEPLENYLDTEYFGTIGIGTPAQDFTVIFDTGSSNLWVPSVYCSSLACSDHNQFNPDDSSTFEATSQELSITYGTGSMTGILGYDTVQVGGISDTNQIFGLSETEPGSFLYYAPFDGILGLAYPSISASGATPVFDNLWDQGLVSQDLFSVYLSSNDDSGSVVLLGGIDSSYYTGSLNWVPVSVEGYWQITLDSITMDGETIACSGGCQAIVDTGTSLLTGPTSAIANIQSDIGASENSDGEMVISCSSIDSLPDIVFTINGVQYPLSPSAYILQDDDSCTSGFEGMDVPTSSGELWILGDVFIRQYYTVFDRANNKVGLAPVA
Consider B1, for which, under setting [1], the denaturant m value is 1.17 kcal/mol/M, the “denaturant midpoint (higher = more stable)” value came to 3.9 M and the unfolding free energy came to 4.16 kcal/mol. Besides, under setting [2], the midpoint of thermal melting (Tm) is 52.6 °C and 53.6 °C; the “unfolding enthalpy (van 't Hoff)” value is 49 kcal/mol and 46.6 kcal/mol.
